Assay results as given in a collection of fitness landscapes (doi:10.1016/j.celrep.2020.107928).
The full ranking holds about 81,000 sequences; the median of “one-hybrid fitness for binding NBS DNA” is about -0.1, and the highest 2% start at about 0.36. The list shows a part of the results.

B1: Caulobacter ParB omega fusion; a variant is named by its letters at X, in order, B8GW30 (parent)
chain: MESVVVGEPGMSEGRRGLGRGLSALLGEVDAAPAQAPGEQLGGSREAPIEILQRNPDQPRRTFREEDLEDLSNSIREKGVLQPILVRPSPDTAGEYQIVAGERAWRAAQRAGLKTVPIMVRELDDLAVLEIGIIENVQRADLNVLEEALSYKVLMEKFERTQENIAQTIGKSXSHVANXMRLLXLPDEVQSYLVSGELTAXHARAIAAAADPVALAKQIIEGGLSVRETEALARKAPNLSAGKSKGGRPPRVKDTDTQALESDLSSVLGLDVSIDHRGSTGTLTITYATLEQLDDLCNRLTRGI

Variants of: B1
Experiment: one-hybrid fitness for binding NBS DNA (the Noc-binding site; scaled: cognate 1, non-cognate 0); higher = stronger binding
Details: with NBS DNA site
Procedure, shortened: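 Caulobacter ParB libraries with four specificity codons randomised were screened by bacterial one-hybrid selection in the E. coli USO strain, using a HIS3 reporter whose site lies 19 bp from the promoter. Selection ran for 48 hours at 37°C on M9 lacking histidine, with 0.1 mM IPTG and 5 mM 3-AT. Plasmids were Illumina-sequenced before and after selection, three replicate libraries were pooled, and variants with under 10 reads were dropped. Fitness is the log change in each variant's read ratio to wild type, rescaled against the cognate and non-cognate sites.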

one-hybrid fitness for binding NBS DNA, 0.601:
IRRR

one-hybrid fitness for binding NBS DNA, ≤ 0.2:
QNAP
SMVF
ERII
AKYG
DLPG
ENYT
HFIV
MTAW
FHHI
KYSC
LSHA
VMAR
NQNT
QSQD
FRHC
PTLG
RIET
LKDH
NAQN
GKRT
DGIC
LYPG
QGRS
ASAF
RDCN
KEGM
QHFV
ALGG
SCSN
NRKM
DGKF
RVVI
PRFE
DCTS
AWKI
NPIA
ISPL
QEAN
RHRG
FTEI
GSDG
SLTV
SHQS
RAGQ
LPYY
QEQR
FKIS
FYVS
GDED
LKWC
TTSK
PPTS
WNLC
MTKY
NRTA
WIHS
PQRY
EVAV
HMLN
TKRP
NCKN
HVRE
IHTS
PRHN
HFNL
DSPL
SSSA
TSCE
PHNP
PCSE
TAEN
HTSK
ASSG
TPLC
RSCI
RQIL
TSPC
AFTQ
HTDL
PSNN
FRGG
MFVS

one-hybrid fitness for binding NBS DNA, 0.534:
QCNS
